The whole screen tested about 390,000 compounds, of which about 150 (0.038%) were called active. This list was built around the results that the source calls inconclusive (neither active nor inactive); the mix of calls is not that of the screen. Calls follow the shape of the dose curve; as a rule, active = well fitted inhibition curve with a large enough effect; inconclusive = small, poorly fitted or top-dose-only effect; inactive = no such curve, though single readings can be large or run the other way. Potencies beside an inconclusive call are fits to weak or partial responses and may not hold up.
Molecular target: Regulator of G-protein signaling 4 (Homo sapiens) (UniProt P49798)
Sequence of UniProt P49798 (P49798 whole entry, looked up): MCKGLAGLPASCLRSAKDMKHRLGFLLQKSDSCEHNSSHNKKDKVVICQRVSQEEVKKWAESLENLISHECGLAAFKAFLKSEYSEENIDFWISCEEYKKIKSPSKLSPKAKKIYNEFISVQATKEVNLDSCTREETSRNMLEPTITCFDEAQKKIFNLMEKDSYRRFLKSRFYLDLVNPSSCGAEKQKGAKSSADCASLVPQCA
Test: Inhibitors of Regulator of G Protein Signaling (RGS) 4: qHTS; also: nearly all actives have a fitted effect of over 75% in size
Settings: Transcreener GDP fluorescence polarization, RGS4-accelerated GTP hydrolysis; series mostly up to 114 µM; activity change, negative = inhibition: at the top concentration
Outline: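 MLSMR compounds (23 nl, pin-transferred) preincubated 10 min at room temperature with a 500nM (2x) first reagent, then RGS4 at 900nM (2x) plus Transcreener GDP mix added; fluorescence polarization (620/688 nm) read before and after 90 min at 30 °C.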
% is scaled to controls: 0 for no effect and ±100 for the full control effect; potency is read from the fitted curve at half-maximal effect; tags tell the direction and shape of the fitted curve.

Q: Which Potency does the source give for `CC1CN(C(=S)c2cccc([N+](=O)[O-])c2)CC(C)O1` (stereo not drawn) here?
A: inconclusive: 89.1 µM [inhibitor, partial curve, poor fit]

Q: Which Potency does the source give for `Cc1ccc(-c2[nH]nc3c2C(c2ccoc2)C(C#N)=C(N)O3)cc1C` (stereo not drawn) here?
A: inconclusive: 79.4 µM [inhibitor, partial curve, poor fit]

Q: How did the “activity change, negative = inhibition” value turn out when `Cc1cc(NC(=O)c2ccc(Cl)cc2)cc(C)c1OCC(=O)N1CCOCC1` was run?
A: inactive: -3.03%

Q: How did the Potency turn out when `Cc1cc(C)c2cc(CN(Cc3ccco3)C(=O)NCc3ccccc3)c(=O)[nH]c2c1` was run?
A: inconclusive: 79.4 µM [inhibitor, partial curve, poor fit]

Q: Which Potency does the source give for `O=C1C(Cl)=C(N2CCCCC2)C(=O)N1c1ccccc1Cl` here?
A: inconclusive: 20 µM [inhibitor, full curve, poor fit]

Q: Which Potency does the source give for `C=CCCC1CN(CCCC)S(=O)(=O)c2c(F)cccc2O1` (stereo not drawn) here?
A: inconclusive: 56.2 µM [inhibitor, partial curve, poor fit]

Q: Which Potency does the source give for `Cc1cc(C(=O)OCC(=O)N2CCN(c3ccccc3)CC2)c2ccccc2n1` here?
A: inconclusive: 100 µM [inhibitor, single point]

Q: Which “activity change, negative = inhibition” value does the source give for `CCC(C(=O)NCCc1ccc(C)cc1)n1nc(C)c2c(C)n(-c3ccccc3)nc2c1=O` (stereo not drawn) here?
A: inactive: -12.3%

Q: How did the Potency turn out when `Cc1oc(-c2nc3ccccc3n2C)cc1C(=O)c1ccccc1` was run?
A: inconclusive: 50.1 µM [inhibitor, partial curve, poor fit]

Q: How did the “activity change, negative = inhibition” value turn out when `Cc1ccccc1CN1CCN(CC(=O)NCc2ccccc2Cl)C1=O` was run?
A: inactive: 6.67%

Q: Which Potency does the source give for `CN(CCNC(=O)c1c[nH]c2c1ccc1ccccc12)CCNC(=O)c1c[nH]c2c1ccc1ccccc12` here?
A: inconclusive: 89.1 µM [inhibitor, single point]

Q: With `O=C(O)CSc1c(-c2cccs2)[nH]c2ccccc12` as the compound, how does the Potency read?
A: inconclusive: 50.1 µM [inhibitor, partial curve, poor fit]

Q: For `Cc1ccc(NC(=S)Nc2ccc(S(=O)(=O)N3CCOCC3)cc2)cc1S(=O)(=O)N1CCOCC1`, which Potency is on record?
A: inconclusive: 50.1 µM [inhibitor, partial curve, poor fit]

Q: `O=[N+]([O-])c1ccccc1/C=C/CN1CCCCC1` was tested. Which “activity change, negative = inhibition” value did it give?
A: inactive: 23.9%

Q: `COc1ccc(N/C=C(\C=C\C#N)S(=O)(=O)c2ccccc2)cc1` was tested. Which “activity change, negative = inhibition” value did it give?
A: inactive: 22.5%

Q: Which Potency does the source give for `C#CCOCCOCCOCCNc1nc(N2CCN(C(=O)CCCCCCCCCCNC(=O)[C@H](CCCCN)n3cc(CCCC(=O)O)nn3)CC2)nc(N2CCN(C(=O)CCCCCCCCCCNC(=O)[C@H](CCCN=C(N)N)n3cc(C[C@@H](C)CC)nn3)CC2)n1` here?
A: inconclusive: 50.1 µM [inhibitor, partial curve, poor fit]

Q: For `CN(C)C(=S)N=c1ssc(=S)n1Cc1cccnc1`, which Potency is on record?
A: inconclusive: 79.4 µM [inhibitor, partial curve, poor fit]

Q: How did the “activity change, negative = inhibition” value turn out when `Cc1ccc2nc(-c3ccc(NC(=O)COc4ccc(Cl)c(C)c4)cc3)sc2c1` was run?
A: inactive: 2.51%

Q: For `Cc1cc(C)c2nc(NC(=O)c3ccc(OCC4CCCO4)cc3)sc2c1` (stereo not drawn), which “activity change, negative = inhibition” value is on record?
A: inactive: -15.4%

Q: How did the Potency turn out when `O=C1C(Cl)=C(N2CCOCC2)C(=O)N1c1cccc(C(F)(F)F)c1` was run?
A: inconclusive: 89.1 µM [inhibitor, partial curve, poor fit]

Q: How did the “activity change, negative = inhibition” value turn out when `CCN(CC)C(=O)c1ccc(S(=O)(=O)Cc2ccc(C)cc2)c([N+](=O)[O-])c1` was run?
A: inactive: -27.6%

Q: With `COCCn1c(SCC(=O)Nc2nnc(C)s2)nnc1-c1cc2ccccc2cc1O` as the compound, how does the Potency read?
A: inconclusive: 89.1 µM [inhibitor, single point]

Q: How did the Potency turn out when `Cc1noc(C)c1C(=O)NCc1ccccc1` was run?
A: inconclusive: 100 µM [inhibitor, single point]

Q: For `Cc1ccc(C)c(N2CCN(C(=O)c3ccc4[nH]c(C)c(C)c4c3)CC2)c1`, which “activity change, negative = inhibition” value is on record?
A: inactive: 17.7%

Q: For `Cc1cc(C(=O)Nn2cnc3ccccc3c2=O)ccc1[N+](=O)[O-]`, which Potency is on record?
A: inconclusive: 70.8 µM [inhibitor, single point]

Q: How did the “activity change, negative = inhibition” value turn out when `COc1ccc(-c2c(S(=O)(=O)c3ccccc3)cnn2-c2ccccc2)cc1` was run?
A: inactive: -15.8%

Q: With `NC1(C(=O)O)C[C@H](C(=O)O)[C@H](C(=O)O)C1` (stereo partly drawn) as the compound, how does the Potency read?
A: inconclusive: 1.68 µM [inhibitor, full curve, poor fit]

Q: With `CC1(C)Cc2ccccc2-c2nnc(SCC(=O)N3CCc4ccccc43)n21` as the compound, how does the “activity change, negative = inhibition” value read?
A: inactive: -41.2%

Q: `Cc1ccc(NC(=O)CNC(=O)OCc2ccccc2)cc1C` was tested. Which Potency did it give?
A: inconclusive: 79.4 µM [inhibitor, single point]

Q: With `O=C(CN1CCOCC1)Nc1ncc(Cc2cccc(Cl)c2)s1` as the compound, how does the “activity change, negative = inhibition” value read?
A: inactive: -6.73%

Q: How did the Potency turn out when `COc1cccc(/C=C/c2ccc3ccccc3n2)c1OC(C)=O` was run?
A: inconclusive: 89.1 µM [inhibitor, single point]

Q: With `COc1ccc(N2CCN(C(=S)NC(=O)c3cccs3)CC2)c([N+](=O)[O-])c1` as the compound, how does the “activity change, negative = inhibition” value read?
A: inactive: -25.7%

Q: With `CCc1nnc(NC(=O)c2ccc(-c3ccc(Cl)cc3)o2)s1` as the compound, how does the “activity change, negative = inhibition” value read?
A: inactive: -24.1%

Q: `CC1Cc2cc(-c3csc(NC(=O)Cc4ccccc4)n3)ccc2N1S(C)(=O)=O` (stereo not drawn) was tested. Which “activity change, negative = inhibition” value did it give?
A: inactive: 2.09%

Q: Which Potency does the source give for `O=c1[nH]c(NCCO)nc2c1C1(CCCCC1)Cc1ccccc1-2` here?
A: inconclusive: 89.1 µM [inhibitor, single point]

Q: Which Potency does the source give for `Cc1ccc(-c2csc(NC(=O)c3cccc(N4C(=O)CCC4=O)c3)n2)o1` here?
A: inconclusive: 31.6 µM [inhibitor, partial curve, poor fit]

Q: With `COc1ccc(S(=O)(=O)Nc2cccc(-c3ccc(N4CCCCCC4)nn3)c2)c(OC)c1` as the compound, how does the Potency read?
A: inconclusive: 17.8 µM [inhibitor, full curve, poor fit]

Q: Which Potency does the source give for `O=C(OC1Cn2c(=O)ccc(=O)n2C1)c1ccccc1` here?
A: inconclusive: 79.4 µM [inhibitor, single point]

Q: Which “activity change, negative = inhibition” value does the source give for `Cc1ccc(CN2C(=O)C3CCCN3c3ncccc32)cc1` (stereo not drawn) here?
A: inactive: 5.37%

Q: For `CCOc1ccc(NC(=O)CC2C(=O)N(CC)C(=S)N2CCN2CCOCC2)cc1` (stereo not drawn), which “activity change, negative = inhibition” value is on record?
A: inactive: -33.3%

Q: With `O=C(NCCCN1CCCC1)c1cc(Sc2ccc(F)cc2)nc2ccccc12` as the compound, how does the Potency read?
A: inconclusive: 79.4 µM [inhibitor, single point]

Q: With `Cc1ccc(S(=O)(=O)N2C(=O)C(c3ccccc3)SC2=Nc2ccccc2)cc1` (stereo not drawn) as the compound, how does the Potency read?
A: inconclusive: 44.7 µM [inhibitor, partial curve, poor fit]

Q: For `COCCCN=C(c1ccco1)n1c(=S)nc(-c2ccco2)n(CCCOC)c1=S`, which Potency is on record?
A: inconclusive: 17.8 µM [inhibitor, full curve, poor fit]

— PubChem BioAssay AID504845 (National Center for Advancing Translational Sciences (NCATS), 2011)
